Data published in the supplement of paper PMC9446081.
The campaign covered roughly 39,000 compounds. About 220 (0.56%) showed activity. The list shows a part of the results.

The compounds below were run on Escherichia coli K-12 BW25113 (assay: relative growth (OD600 normalised to plate interquartile mean) (fraction); higher = less growth inhibition, active = 0.2 or less). Conditions: 50 µM; LB; incubation time: overnight (16-24 h).
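Further: static incubation at 37 °C against the wild-type strain, values averaged over two biological replicates.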

Question: `COC(=O)CCCCCCC(=O)Nc1ccc([C@H]2O[C@@H](CSc3ccccn3)C[C@H](c3ccccc3)O2)cc1` was tested. Which relative growth did it give?
Answer: inactive: 1.04

Question: For `C[C@H](CO)N1C[C@H](C)[C@@H](CN(C)S(C)(=O)=O)Oc2cc(-c3cccc(F)c3)ccc2S1(=O)=O`, which relative growth is on record?
Answer: inactive: 1

Question: Which relative growth does the source give for `CCN(CC)CCNC(C(=O)OCCC(C)C)c1ccccc1.Cl.Cl` (stereo not drawn) here?
Answer: inactive: 1.16

Question: How did the relative growth turn out when `COc1ccc(S(=O)(=O)N(C)C[C@@H]2Oc3c(NS(C)(=O)=O)cccc3C(=O)N([C@@H](C)CO)C[C@H]2C)cc1` was run?
Answer: inactive: 0.992

Question: How did the relative growth turn out when `Cc1noc(C)c1S(=O)(=O)Nc1ccc2c(c1)C(=O)N([C@H](C)CO)C[C@H](C)[C@@H](CN(C)S(=O)(=O)c1ccc(F)cc1)O2` was run?
Answer: inactive: 1.02

Question: How did the relative growth turn out when `c1ccc2c(c1)Cn1nnnc1-2` was run?
Answer: inactive: 1.03

Question: How did the relative growth turn out when `Cc1noc(C)c1S(=O)(=O)N(C)C[C@@H]1Oc2ccc(NC(=O)C3CCCCC3)cc2CC(=O)N([C@H](C)CO)C[C@@H]1C` was run?
Answer: inactive: 0.989

Question: With `CC(=O)OC[C@H]1O[C@H](C/C=N/O[C@H](C)c2cn([C@@H]3COC[C@H]3O)nn2)C=C[C@@H]1OC(C)=O` as the compound, how does the relative growth read?
Answer: inactive: 1

Question: Which relative growth does the source give for `O=C1CCNCCN1` here?
Answer: inactive: 1.03

Question: How did the relative growth turn out when `COc1ccc(NC(=O)N(C)C[C@H]2OCCCC[C@H](C)Oc3ccc(NS(=O)(=O)c4ccc(C)cc4)cc3C(=O)N([C@@H](C)CO)C[C@H]2C)cc1` was run?
Answer: inactive: 1.02

Question: Which relative growth does the source give for `Cc1ccc(S(=O)(=O)Nc2ccc3c(c2)C(=O)N([C@@H](C)CO)C[C@@H](C)[C@@H](CN(C)S(=O)(=O)c2ccc(C)cc2)OCCCC[C@@H](C)O3)cc1` here?
Answer: inactive: 1

Question: `C[C@@H]1CN([C@@H](C)CO)C(=O)c2cc(NC(=O)Nc3ccc4c(c3)OCO4)ccc2O[C@@H]1CN(C)C(=O)Nc1cccc2ccccc12` was tested. Which relative growth did it give?
Answer: inactive: 1.03

Question: For `C[C@@H]1CN([C@@H](C)CO)S(=O)(=O)c2ccc(Br)cc2O[C@@H]1CN(C)Cc1ccc(C(=O)O)cc1`, which relative growth is on record?
Answer: inactive: 0.985

Question: Which relative growth does the source give for `C[C@H]1CN([C@@H](C)CO)C(=O)c2cccc(NC(=O)Nc3ccc4c(c3)OCO4)c2O[C@H]1CN(C)Cc1ccc(Oc2ccccc2)cc1` here?
Answer: inactive: 0.961

Question: For `CN1CCN2c3ccccc3Cc3ccccc3C2C1.Cl` (stereo not drawn), which relative growth is on record?
Answer: inactive: 1.03

Question: `O=c1[nH]c2ccsc2c(=O)n1CCO` was tested. Which relative growth did it give?
Answer: inactive: 0.976

Question: `O=C(NCCN1CCCC1)[C@H]1[C@H](CO)[C@H]2Cn3c(cccc3=O)[C@@H]1N2C(=O)c1ccccc1` was tested. Which relative growth did it give?
Answer: inactive: 0.992

Question: How did the relative growth turn out when `C[C@@H]1CN([C@H](C)CO)C(=O)c2cccc(NS(=O)(=O)c3cccs3)c2O[C@H]1CN(C)CC1CC1` was run?
Answer: inactive: 0.885

Question: How did the relative growth turn out when `C[C@@H]1CN([C@H](C)CO)C(=O)c2cccc(NC(=O)Nc3cccc4ccccc34)c2O[C@@H]1CN(C)S(=O)(=O)c1ccccc1` was run?
Answer: inactive: 0.995

Question: Which relative growth does the source give for `C[C@@H]1CCCCO[C@H](CN(C)C(=O)c2ccccc2)[C@@H](C)CN([C@@H](C)CO)C(=O)c2cc(NC(=O)Nc3ccc(C(F)(F)F)cc3)ccc2O1` here?
Answer: inactive: 1.04

Question: Which relative growth does the source give for `C[C@@H]1CN([C@@H](C)CO)C(=O)c2cccc(NC(=O)C3CCOCC3)c2O[C@@H]1CN(C)C(=O)NC1CCCCC1` here?
Answer: inactive: 0.973

Question: How did the relative growth turn out when `C[C@H](CO)N1C[C@H](C)[C@@H](CN(C)Cc2ccc(-c3ccccc3)cc2)Oc2c(NC(=O)C3CC3)cccc2C1=O` was run?
Answer: inactive: 1.02

Question: For `Nc1cnc(Cl)cn1`, which relative growth is on record?
Answer: inactive: 0.99

Question: How did the relative growth turn out when `COc1ccc(S(=O)(=O)Nc2ccc3c(c2)C(=O)N([C@H](C)CO)C[C@@H](C)[C@H](CN(C)C(=O)c2ccccc2)OCCCC[C@@H](C)O3)cc1` was run?
Answer: inactive: 1

Question: For `C[C@@H]1CN([C@@H](C)CO)C(=O)Cc2cc(NC(=O)Nc3ccc(C(F)(F)F)cc3)ccc2O[C@@H]1CN(C)C(=O)Nc1ccc(F)cc1`, which relative growth is on record?
Answer: inactive: 1.02

Question: With `Cc1cc2c(s1)Nc1ccccc1N=C2N1CCN(C)CC1` as the compound, how does the relative growth read?
Answer: inactive: 0.929

Question: How did the relative growth turn out when `c1ccc(C2=Nc3ccccc3N=C(c3ccccc3)C2)cc1` was run?
Answer: inactive: 0.936

Question: How did the relative growth turn out when `CCN(CC)CCOC(=O)c1ccc(N)cc1.Cl` was run?
Answer: inactive: 1.08

Question: With `C[C@@H]1CN([C@@H](C)CO)C(=O)c2cccc(NC(=O)c3ccc(-c4nccs4)cc3)c2O[C@H]1CN(C)C(=O)NC1CCCCC1` as the compound, how does the relative growth read?
Answer: inactive: 0.999

Question: `C[C@H](CO)N1C[C@H](C)[C@H](CN(C)Cc2ccccc2)Oc2ccc(NC(=O)CCCCCC(=O)Nc3ccccc3N)cc2C1=O` was tested. Which relative growth did it give?
Answer: inactive: 0.995

Question: How did the relative growth turn out when `COc1ccc(NC(=O)Nc2ccc3c(c2)C(=O)N([C@H](C)CO)C[C@H](C)[C@H](CN(C)C(=O)C2CCCCC2)OCCCC[C@H](C)O3)cc1` was run?
Answer: inactive: 1.04

Question: For `COc1ccc(NC(=O)N(C)C[C@@H]2Oc3ccc(NS(C)(=O)=O)cc3CC(=O)N([C@H](C)CO)C[C@@H]2C)cc1`, which relative growth is on record?
Answer: inactive: 0.996

Question: For `CCCCC/C=C\C/C=C\C/C=C\CCCCCCC(=O)O`, which relative growth is on record?
Answer: inactive: 0.9

Question: How did the relative growth turn out when `C[C@H](CO)N1C[C@H](C)[C@H](CN(C)Cc2ccc(C(F)(F)F)cc2)Oc2ccc(NC(=O)Nc3ccc4c(c3)OCO4)cc2CC1=O` was run?
Answer: inactive: 1.06

Question: `C[C@@H]1CCCCO[C@@H](CN(C)C(=O)Nc2ccc(F)cc2)[C@H](C)CN([C@H](C)CO)C(=O)c2cc(NC(=O)c3ccccc3)ccc2O1` was tested. Which relative growth did it give?
Answer: inactive: 1.01

Question: Which relative growth does the source give for `C[C@@H]1CCCCO[C@H](CN(C)Cc2ccc(Cl)c(Cl)c2)[C@@H](C)CN([C@H](C)CO)C(=O)c2cc(NC(=O)CCCCCC(=O)Nc3ccccc3N)ccc2O1` here?
Answer: inactive: 0.943

Question: `COc1ccncc1N` was tested. Which relative growth did it give?
Answer: inactive: 0.981

Question: For `C[C@H]1CN([C@@H](C)CO)C(=O)CCCn2cc(nn2)CO[C@H]1CN(C)S(=O)(=O)c1ccc2ccccc2c1`, which relative growth is on record?
Answer: inactive: 0.972

Question: With `O=C1c2ccccc2C(=O)C1c1ccc(Br)cc1` as the compound, how does the relative growth read?
Answer: inactive: 1.07

Question: For `C[C@H](CO)N1C[C@H](C)[C@@H](CN(C)Cc2ccccc2)Oc2c(NC(=O)CCCCCC(=O)Nc3ccccc3N)cccc2C1=O`, which relative growth is on record?
Answer: inactive: 1.03

Question: Which relative growth does the source give for `NNC(=O)c1cccc(Cn2cccn2)c1` here?
Answer: inactive: 1.01

Question: `Cc1ccc(S(=O)(=O)Nc2ccc3c(c2)C(=O)N([C@@H](C)CO)C[C@@H](C)[C@@H](CN(C)C(=O)c2ccccc2)OCCCC[C@@H](C)O3)cc1` was tested. Which relative growth did it give?
Answer: inactive: 0.995

Question: For `COc1ccc(S(=O)(=O)N(C)C[C@H]2Oc3cc(-c4ccccc4OC)ccc3S(=O)(=O)N([C@H](C)CO)C[C@H]2C)cc1`, which relative growth is on record?
Answer: inactive: 1.07

Question: With `COC(=O)c1c(C)cc(OC)cc1O` as the compound, how does the relative growth read?
Answer: inactive: 0.904

Question: With `C[C@@H]1CN([C@@H](C)CO)C(=O)c2cccc(NS(=O)(=O)c3ccccc3)c2O[C@@H]1CN(C)Cc1ccc(Oc2ccccc2)cc1` as the compound, how does the relative growth read?
Answer: inactive: 0.977

Question: How did the relative growth turn out when `NC(=O)NCC#Cc1ccc2c(c1)[C@]1(C(=O)N2)[C@H](c2ccc(OCCO)cc2)N2[C@H](c3ccccc3)[C@H](c3ccccc3)OC(=O)[C@H]2[C@@H]1C(N)=O` was run?
Answer: inactive: 1.04

Question: `NC[C@H](O)c1ccc(O)c(O)c1` was tested. Which relative growth did it give?
Answer: inactive: 1

Question: `COC(=O)[C@@H]1[C@@H](c2ccc(OC)cc2)[C@H](C(=O)OC)S(=O)(=O)CS1(=O)=O` was tested. Which relative growth did it give?
Answer: inactive: 1.01

Question: Which relative growth does the source give for `C[C@@H]1CCCCO[C@H](CN(C)C(=O)C2CCCCC2)[C@H](C)CN([C@H](C)CO)C(=O)c2cc(NC(=O)c3ccccc3)ccc2O1` here?
Answer: inactive: 1.02

Question: `C=CCn1c(=O)c2c(OC)ccnc2n(C)c1=O` was tested. Which relative growth did it give?
Answer: inactive: 0.997

Question: How did the relative growth turn out when `CN(C)CCOc1c(Br)cc(/C=C/C(=O)NCCCOc2c(Br)cc(CCN(C)C)cc2Br)cc1Br` was run?
Answer: inactive: 0.991

Question: `O=C(C[C@@H]1C=C[C@@H](NC(=O)c2ccncc2)[C@H](CO)O1)NCc1ccncn1` was tested. Which relative growth did it give?
Answer: inactive: 1

Question: For `CCOC(=O)C1CCN(C)CC1`, which relative growth is on record?
Answer: inactive: 1.01

Question: How did the relative growth turn out when `C=C1c2cccc(O)c2C(=O)C2=C(O)C3(O)C(=O)C(C(N)=O)=C(O)C(N(C)C)C3C(O)C12.Cl` (stereo not drawn) was run?
Answer: active: 0.0546

Question: Which relative growth does the source give for `CC(C)(C)[S@](=O)N1Cc2cc(C(=O)NCCc3ccncc3)nc(-c3cccc(-c4ccc(C#N)cc4)c3)c2[C@@H]1CCO` here?
Answer: inactive: 1

Question: How did the relative growth turn out when `CCS(=O)(=O)N[C@H]1C=C[C@@H](CC(=O)O)O[C@@H]1CO` was run?
Answer: inactive: 0.983

Question: With `Cc1noc(C)c1NC(=O)Nc1ccc2c(c1)C(=O)N([C@H](C)CO)C[C@@H](C)[C@H](CN(C)Cc1ccccc1)OCCCC[C@H](C)O2` as the compound, how does the relative growth read?
Answer: inactive: 1.01

Question: For `C[C@H]1CN([C@@H](C)CO)S(=O)(=O)c2ccc(Br)cc2O[C@H]1CN(C)C(=O)c1ccccc1F`, which relative growth is on record?
Answer: inactive: 0.996

Question: With `O=C(CN1CCOCC1)NCC[C@@H]1CC[C@H](NC(=O)Cc2ccccn2)[C@H](CO)O1` as the compound, how does the relative growth read?
Answer: inactive: 0.995

Question: `C[C@H](CO)N1C[C@H](C)[C@H](CN(C)C(=O)Nc2cccc3ccccc23)Oc2ncc(-c3ccccc3)cc2C1=O` was tested. Which relative growth did it give?
Answer: inactive: 1

Question: Which relative growth does the source give for `C[C@@H]1CN([C@@H](C)CO)S(=O)(=O)c2ccc(C3=CCCC3)cc2O[C@@H]1CN(C)C(=O)c1cnccn1` here?
Answer: inactive: 0.988

Question: Which relative growth does the source give for `CN(C)CCCCNC(=O)[C@H]1C[C@H]2C(=O)NCC(=O)N2[C@H]1c1cccc(OCCO)c1` here?
Answer: inactive: 1

Question: How did the relative growth turn out when `CC(C)(C)OC(=O)C[C@H]1CC=CC[C@@H](CC(=O)N[C@@H](CO)Cc2ccccc2)C(=O)N[C@@H](C(C)(C)C)COC1=O` was run?
Answer: inactive: 0.999

Question: For `Nc1nc(Cl)nc(Cl)n1`, which relative growth is on record?
Answer: inactive: 1.02

Question: `C[C@@H]1CN([C@@H](C)CO)C(=O)c2cc(NS(C)(=O)=O)ccc2O[C@@H]1CN(C)C(=O)Nc1ccc(C(F)(F)F)cc1` was tested. Which relative growth did it give?
Answer: inactive: 1.05

Question: For `Cc1noc(C)c1NC(=O)N(C)C[C@@H]1Oc2ccc(NC(=O)Nc3cccc4ccccc34)cc2C(=O)N([C@H](C)CO)C[C@@H]1C`, which relative growth is on record?
Answer: inactive: 1.01

Question: How did the relative growth turn out when `Nn1nnc2ccccc21` was run?
Answer: inactive: 0.973

Question: Which relative growth does the source give for `C[C@H](CO)N1C[C@H](C)[C@H](CN(C)Cc2ccc(C(=O)O)cc2)Oc2c(NC(=O)c3cnccn3)cccc2C1=O` here?
Answer: inactive: 0.984
